Measurements from the supplement of paper PMC11417369.
± gives the standard deviation of the averaged measurements. This is one part of the list.

system: PfAP2-I AP2 domain 3 (GST-tagged); assay: gcPBM binding intensity (ln(normalized median fluorescence intensity)); higher = stronger DNA binding
Procedure, shortened: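 DNA-binding domains from P. falciparum, fused to GST and produced in E. coli, were put on an Agilent 4 × 180k double-stranded probe array for 1 h in 1× PBS holding 1% milk, 0.2 mg/ml BSA, 0.5% salmon testes DNA and 0.03% Triton X-100. Probes were primer-extended, 36 bp long and drawn from intergenic genomic regions, with negative controls included. After Alexa488 anti-GST antibody detection and a 488 nm scan, binding intensity was set as the highest Masliner-normalised natural-log median intensity across replicate spots of either probe orientation.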

Sequence | gcPBM binding intensity (ln)
AGTTTGTTTTTTTTTTTTTTTTCCTGTCACAAACAA [CACACA_negctrl_site1093] | 8.22 ± 0.62
TCTCCACCTCTCTTGGTGCGTTATACCCTCGAGGCT | 11.3 ± 0.54
TATAACAAAATATTCACACATATAAGTAAATAAAGG [CACACA_site5777] | 7.87 ± 0.57
AAGAAAAAAATTTAATTAAATGAAATTTTTGAATTA [TGCATGCA_negctrl_site25] | 7.16 ± 0.57
AAGACTGCACTTTAAGCACACAAATATATTTTTTTT [CACACA_site8337] | 9.88 ± 0.2
AAAGTGGCCATATATTTTTTTTTTTTTTTCCTTATT [CACACA_negctrl_site485] | 7.56 ± 0.69
AAAAATAAAGGATATACACACTAATTATATATATAT [CACACA_site5550] | 8.845 ± 0.064
ATTATTATATTTATATGTACATAGAAAAAATTAAAT [XGTACX_site2058] | 7.91 ± 0.3
TCAGATATATATATATAAATATATATTTTGAAATGT [CACACA_negctrl_site686] | 7.62 ± 0.47
TAGTATCCAAGAAAAAGTACTTATTTTAATTTTTTA [XGTACX_site6243] | 7.48 ± 0.18
AATATTTATAAAGACACACAAACAAAAAGGATAAAA [CACACA_site2985] | 8.13 ± 0.65
TCATTTAAGTAGACGCGTACGGAAATTACGAATCCT [XGTACX_site144] | 7.54 ± 0.59
TAATTTATGACACGCGCACACATATATATATAGTAA [CACACA_site4249] | 8.31 ± 0.26
AAAAATTATGGACACACACACATATATATATATATT [CACACA_site4717] | 7.97 ± 0.45
GGTATACGCAAGTATACACACATATATATATATATA [CACACA_site3240] | 9.3 ± 0.35
AATAAAATAAAATACACACATACATACATACAAATG [CACACA_site2438] | 7.86 ± 0.49
AAAAACTAATCTTTAACATGCAACCGTTTATACATA [TGCATGCA_site363] | 7.6 ± 0.75
TGAGTTACATACTAATGTACACAACAAAAAAAAAAA [XGTACX_site2390] | 8.04 ± 0.8
AAAGGTTTATATGATACACACATAAGTGATCAGGTT [CACACA_site190] | 7.53 ± 0.75
TTTTTTTGAACATATACACACTCTAAACTTATACAT [CACACA_site3917] | 7.93 ± 0.46
AAAAAAAAAAAAGGAGGTACACAATTTTATATATGC [XGTACX_site5296] | 7.85 ± 0.27
ACAAGTCAGGCAAAAACATGCATTATTTGAACATTA [TGCATGCA_site864] | 7.92 ± 0.7

Sequence | gcPBM binding intensity (ln)
ACATTTTTTTCATATCGTACATATTATAATATTTTC [XGTACX_site6524] | 8.24 ± 0.62
GAGCATTACCCATATACACACATATATATAAACCTA [CACACA_site2737] | 8.24 ± 0.44
TTTTGTTATTTTTTAGTGCATATAAAGGTTGTTAAG | 10.7 ± 0.4
TTTTGCAATAATGTTGCACACTAAATAGTCATCTAT [CACACA_site4304] | 8.83 ± 0.47
GTACGATAAAAAATTGGACAAAAAAAAAAAAAAAAT [XGTACX_negctrl_site158] | 7.66 ± 0.46
ATTTCATAAATTAAACGTACATAATACACACACATG [XGTACX_site4155] | 8.22 ± 0.26
TAAAACAACAAAGAAAATGAAAAAGTAAAAACATAT [CACACA_negctrl_site1049] | 7.88 ± 0.75
ACTGTAAAAGGATTTACACACATATTTACATTTACA [CACACA_site519] | 7.79 ± 0.7
TACCAATGCATAACGGTGCAAAAAAATAAGGAATAA | 10.47 ± 0.064
ATGCATATAACTACGTGTACAAATATACACAAATAC [XGTACX_site8811] | 8.27 ± 0.57
TTTCCTTATTAAAACACACAAATACATTATTTAATC [CACACA_site7080] | 7.65 ± 0.4
ACCCATAAAAAGGATACACACACACCCACCCATATA [CACACA_site8205] | 8.28 ± 0.8
ATATATATATTTGTATGTACATATATATATTCGTAT [XGTACX_site1640] | 8.79 ± 0.13
AATCCTTACGGACACACACACACGAATAAATAAAAA [CACACA_site4422] | 8.21 ± 0.26
GAGTATTCAAGTATTAGTACATATTATATAATAAAT [XGTACX_site7630] | 7.78 ± 0.18
TAAAATAAAAATTAAAGTACATATGTATATATATAT [XGTACX_site3984] | 9.32 ± 0.34
TACAAAATGGGGAACACACACATATATAAATAAATA [CACACA_site7751] | 7.97 ± 0.48
ATAATTATTTTAGAAACACACAAATTAGAAAAAACA [CACACA_site3636] | 7.83 ± 0.75
ACATTAAAATATGATTGTACATTTTATTATATTATA [XGTACX_site912] | 7.67 ± 0.61
ACAACACTATATTACACATGCATTAAGAGAGTGAAC [TGCATGCA_site124] | 8.36 ± 0.55
ATTCAAATATTAAAAAGTACAAAAAAAAAACAAAAA [XGTACX_site1174] | 7.92 ± 0.38
ATATAATTATTGATATGTACATATTTGTTCTAGTTT [XGTACX_site3012] | 7.71 ± 0.64

Sequence | gcPBM binding intensity (ln)
CTATCATATTTATGCACACAAAAATAATTAATTCGT [CACACA_site2614] | 9.63 ± 0.35
ACCTGTTCATATGATCGTACACGTCAGTTTATATGA [XGTACX_site3869] | 8.21 ± 0.51
TATTTTGAGAATAAATGTACGAATTTTATATTTAAA [XGTACX_site1336] | 7.44 ± 0.27
TTACTTAAATATAAGTGTCCTCAAAAAAAAAAAAAA [XGTACX_site460] | 8.1 ± 0.54
ATGTATGTTTTTTTTTTATTGTTCAAAAAGTTGAAG [CACACA_negctrl_site1276] | 7.86 ± 0.59
ATTTTTTATATTAATTGTACATTGTATATATATATA [XGTACX_site8702] | 9.29 ± 0.4
AATATAAGTTTATTAGTGCACAGATAAATATATATT [GTGCAC_site9784] | 11.4 ± 0.23
TTTTTATAAAAATTATTAAAAAAATTATTTATAGCT [CACACA_negctrl_site265] | 7.29 ± 0.49
TAGCGCATAAAAAAAAAAAAATATATACTAATAAAT [GTGCAC_negctrl_site276] | 7.58 ± 0.37
AAATATATTATTATCTTATCAATTAAAAGAATAAAC [CACACA_negctrl_site779] | 7.55 ± 0.59
TTTTTTTTCAATCTCTATATATTAAGGTTTATATTT [XGTACX_negctrl_site397] | 7.46 ± 0.53
CGTGTGTCCCCCTTAATCATCCAATCGTTCATTTTG [CACACA_negctrl_site1008] | 8.38 ± 0.28
TATATAATGGTAAAAACACACAAATATGAAGATGTT [CACACA_site722] | 7.72 ± 0.66
AAATATAAAAGTATATGTACATATATATATATATAT [XGTACX_site7446] | 9.4 ± 0.47
AATAAATAGATATATACACACATATATCTATAATAT [CACACA_site6557] | 7.64 ± 0.43
CATATTCCCCCCCACACACACACACCCATACATACC [CACACA_site2303] | 11.2 ± 0.44
TCTTCATTTTTATGTGCATGTAAAATTTTTTTTTTT [TGCATGCA_site963] | 8.59 ± 0.74
GACAATAAAAAGAAAAGTACATATATAAATTAACCA [XGTACX_site7858] | 7.69 ± 0.51
AGAGGATCATAGTTATGTACACATATTTAACATAAA [XGTACX_site7232] | 7.6 ± 0.44
TTTTTTTCTAATTATGCACACATATCAAAATATTCA [CACACA_site8886] | 10.1 ± 0.31
ATATTTATTATATAATGTACAAAAAAAAAAAAAAAA [XGTACX_site629] | 8.01 ± 0.66
AAACGTAACATATATATATATATATATAAGATATAT [CACACA_negctrl_site126] | 8.36 ± 0.38

Sequence | gcPBM binding intensity (ln)
ATAAATCTACACCGCACACAAAAACAACAAATATTA [CACACA_site5396] | 8.38 ± 0.2
AATGAATATATATAAATATATATATATATATATATA [CACACA_negctrl_site1494] | 9.22 ± 0.55
ATATTTGTATAAATTGCACACTTTATTTTTTTTAAG [CACACA_site1558] | 8.87 ± 0.27
ATGTTATTACATAATTGTACATTTTGAGCAATTAAG [XGTACX_site4640] | 7.68 ± 0.33
TATATAATATTCTACACACCAACAACAAACATATAT [CACACA_site567] | 8.07 ± 0.43
ATATATATATTTATATGTACATAATATAAAATTTCT [XGTACX_site3720] | 8.8 ± 0.071
ATATTCTGATTTTAGATGCACTTCGTTAACAAAATA [GTGCAC_site9958] | 9.195 ± 0.064
AAAAGAATAATAATTTATGTATATTAATTAAAGAAT [XGTACX_negctrl_site402] | 7.46 ± 0.54
TTATATATATGTGTATGTACATATATATATATATAT [XGTACX_site1141] | 9.38 ± 0.54
TATCATATATTATATGCACACATGTTTTTCAAGAAT [CACACA_site1892] | 9.335 ± 0.078
TATTTATTATTATGTACACACTATATTAAAACATAA [CACACA_site4549] | 8.175 ± 0.064
TATGTGAATCCTAAGTGTACACATCTTACATATATA [XGTACX_site2506] | 8.15 ± 0.4
AGTATACGCAGACACACACACACATATATATATATA [CACACA_site1735] | 9.54 ± 0.52
ATAAGATGATTAATTACACACTTTATAGGATATTTA [CACACA_site1711] | 7.57 ± 0.55
GGTATATGCATAAAGAGTACGTAACTTCTTTTTGTT [XGTACX_site6344] | 8.22 ± 0.59
TTTTTTTTTTTTTCTTCACACACAGTACTACTATTT [CACACA_site8759] | 8.14 ± 0.77
TTAGCTTTTTTTTAAACATGCAACTACTTGATCCAC [TGCATGCA_site1017] | 7.84 ± 0.45
CCAAAAAATATATGTAGTACTACATTATTAAATATG [XGTACX_site5128] | 7.95 ± 0.36
ATTAAGTACTAAAAAGTGCAGTTCGGTACTGTGCTT [GTGCAC_site9755] | 9.23 ± 0.19
AATAAAAAACATGAAAGTACTTTAAAAAAGGTAATA [XGTACX_site1897] | 8.09 ± 0.66
AAGTACATACATAAAACACACACATATATATATATA [CACACA_site8541] | 9.38 ± 0.74
AATATATAAATCAATAGTACATATATATATATATAT [XGTACX_site3898] | 9.21 ± 0.73
